Our source for the binding values is article PMC9969854.

Results are given in words; binding and its absence hold for the method and conditions named. For part of these data: Binding seen in cells or lysates may run through a third protein. Some entries that bind do so weakly or less than the wild type.

For assay [1], the target named is T1, OsYABBY1 (rice (Oryza sativa)) (UniProt Q7XIM7).
T1 sequence: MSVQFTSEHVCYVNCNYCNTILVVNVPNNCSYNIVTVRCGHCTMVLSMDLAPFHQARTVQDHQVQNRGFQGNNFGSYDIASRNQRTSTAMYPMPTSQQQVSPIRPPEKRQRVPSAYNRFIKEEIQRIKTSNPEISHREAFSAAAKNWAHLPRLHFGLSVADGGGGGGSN
Put plainly: two-hybrid; OsYABBYs as bait in pGBKT7, OsWOX3A or OsWUS as prey in pGADT7; yeast AH109; growth on SD/-Leu/-Trp/-His/-Ade medium.

In assay [2] the target is T2, OsYABBY2 (rice (Oryza sativa)) (UniProt Q10FZ7).
T2 sequence: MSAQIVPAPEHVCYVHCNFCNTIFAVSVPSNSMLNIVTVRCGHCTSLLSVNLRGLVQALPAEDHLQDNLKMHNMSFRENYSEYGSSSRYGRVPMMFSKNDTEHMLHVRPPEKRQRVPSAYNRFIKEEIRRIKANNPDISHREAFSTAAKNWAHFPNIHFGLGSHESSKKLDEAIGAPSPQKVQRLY
Described as above.

The target of assay [3] is T3, OsYABBY3 (rice (Oryza sativa)) (UniProt Q8L556).
T3 sequence: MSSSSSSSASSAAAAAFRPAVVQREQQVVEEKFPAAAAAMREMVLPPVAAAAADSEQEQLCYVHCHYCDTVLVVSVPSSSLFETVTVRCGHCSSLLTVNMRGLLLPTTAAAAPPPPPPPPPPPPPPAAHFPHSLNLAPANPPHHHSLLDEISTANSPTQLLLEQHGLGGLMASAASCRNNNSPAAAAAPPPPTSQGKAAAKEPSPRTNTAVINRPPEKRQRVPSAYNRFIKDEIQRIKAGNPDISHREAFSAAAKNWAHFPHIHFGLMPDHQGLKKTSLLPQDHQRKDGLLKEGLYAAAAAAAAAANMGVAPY
The description is as above.

The target in assay [4] is T4, OsYABBY4 (rice (Oryza sativa)) (UniProt Q6H668).
T4 sequence: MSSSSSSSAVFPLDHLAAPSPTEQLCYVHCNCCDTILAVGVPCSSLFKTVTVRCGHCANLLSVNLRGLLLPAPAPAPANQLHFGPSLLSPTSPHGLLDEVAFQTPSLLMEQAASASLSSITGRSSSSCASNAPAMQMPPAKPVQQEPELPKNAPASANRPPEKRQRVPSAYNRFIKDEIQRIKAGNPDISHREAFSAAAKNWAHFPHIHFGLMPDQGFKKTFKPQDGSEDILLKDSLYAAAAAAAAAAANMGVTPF
The assay is described as above.

Assay [5] has as its target T5, OsYABBY5 (rice (Oryza sativa)) (UniProt Q0JBF0).
T5 sequence: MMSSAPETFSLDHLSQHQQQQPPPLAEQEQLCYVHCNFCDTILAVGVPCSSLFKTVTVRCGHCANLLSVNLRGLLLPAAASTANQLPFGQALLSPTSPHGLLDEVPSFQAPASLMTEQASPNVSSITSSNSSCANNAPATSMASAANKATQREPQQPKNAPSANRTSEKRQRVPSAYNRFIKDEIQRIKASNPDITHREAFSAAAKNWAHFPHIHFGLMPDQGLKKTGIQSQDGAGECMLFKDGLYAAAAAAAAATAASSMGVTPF
The assay is described as above.

The target of assay [6] is T6, OsYABBY6 (rice (Oryza sativa)) (UniProt Q2QM17).
T6 sequence: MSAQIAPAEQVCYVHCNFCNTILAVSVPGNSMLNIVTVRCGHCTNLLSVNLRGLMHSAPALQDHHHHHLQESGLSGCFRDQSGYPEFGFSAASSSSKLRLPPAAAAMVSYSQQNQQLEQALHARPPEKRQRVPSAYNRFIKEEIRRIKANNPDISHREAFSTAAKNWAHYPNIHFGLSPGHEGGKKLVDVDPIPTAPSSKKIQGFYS
The assay is described as above.

The target in assay [7] is T1, OsYABBY1 (rice (Oryza sativa)). Put plainly: split reporter; luciferase complementation imaging (LCI): OsYABBY in the N-luc vector, partner in the C-luc vector, expressed together in Nicotiana benthamiana; bioluminescence detected by Tanon5200.
For assay [8], the target named is T2, OsYABBY2 (rice (Oryza sativa)). Described as above.
Assay [9] concerns the target T3, OsYABBY3 (rice (Oryza sativa)). Described as above.
For assay [10], the target named is T4, OsYABBY4 (rice (Oryza sativa)). Described as above.
The target in assay [11] is T5, OsYABBY5 (rice (Oryza sativa)). The description is as above.
Assay [12] has as its target T6, OsYABBY6 (rice (Oryza sativa)). The description is as above.

B1: OsWUS (protein, UniProt Q7XM13 1-289)
chain: MDHMQQQQRQQVGGGGGEEVAGRGGVPVCRPSGTRWTPTTEQIKILRELYYSCGIRSPNSEQIQRIAAMLRQYGRIEGKNVFYWFQNHKARERQKKRLTTLDVTTTTAAAADADASHLAVLSLSPTAAGATAPSFPGFYVGNGGAVQTDQANVVNWDCTAMAAEKTFLQDYMGVSGVGCAAGAAPTPWAMTTTTREPETLPLFPVVFVGGDGAHRHAVHGGFPSNFQRWGSAAATSNTITVQQHLQQHNFYSSSSSQLHSQDGPAAGTSLELTLSSYYCSCSPYPAGSM
B1: the binding result in [1] was “no binding”; in assay [2], “no binding”; in assay [3] it was “binds”; in assay [4], “no binding”; in assay [5], “binds”; in assay [6], “no binding”. The binding result in assay [7] is given as “no binding”; in assay [8] it was “no binding”; in assay [9] it was “binds”; in assay [10], “no binding”; in assay [11], “binds”; in assay [12] it was “no binding”.
